# Columns and labels:
# [1] = molecular target: Large ribosomal subunit protein bL33 (UniProt P0A7N9)
# [2] = molecular target: DNA-binding protein HU-alpha (UniProt P0ACF0)
# UniProt P0ACF0, sequence (P0ACF0 whole entry): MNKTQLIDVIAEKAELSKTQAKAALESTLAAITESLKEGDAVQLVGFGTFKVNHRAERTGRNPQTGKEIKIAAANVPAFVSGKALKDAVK
substance,measurement,setting,value
Large ribosomal subunit protein uL1,listed as a hit,[1],yes
same,listed as a hit,[2],yes

# Source: paper PMC12214610
